Reference: PubChem BioAssay AID686979 (National Center for Advancing Translational Sciences (NCATS), 2013)
Where “and” joins values, the source holds several entries; their conditions need not be identical. Equal entries are not always repeated. Out of some 420,000 compounds screened, about 50,000 (12%) were called active. The shares of active, inactive and inconclusive entries below differ from those in the screen. Calls come from the whole dose curve; as a rule, active = well fitted inhibition curve with a large enough effect; inconclusive = small, poorly fitted or top-dose-only effect; inactive = flat fitted curve, though single readings scatter. A potency beside an inconclusive call is a rough fit, not a confirmed value.

assay: qHTS for Inhibitors of human tyrosyl-DNA phosphodiesterase 1 (TDP1): qHTS in cells in presence of CPT; details: chicken DT40 Tdp1-/-;hTDP1 cells + 20 nM CPT, ATP luminescence, 48 h; series mostly up to 46.2 µM; note: nearly all actives have a fitted effect of over 55% in size
How it was run: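 Chicken DT40 Tdp1-/- cells stably complemented with human TDP1 were seeded at 400 cells/well in medium containing 20 nM camptothecin, exposed to pin-transferred compounds, and grown at 37 °C for at least 48 hr. Viability was read as ATP luminescence.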
Potency is the fitted concentration of half-maximal effect; tags give direction and shape of the fitted curve.

| SMILES | Potency |
| --- | --- |
| CCOc1ccc(-c2n[nH]c(C)c2Oc2ccccc2OC)c(O)c1 | inconclusive: 20.6 µM [inhibitor, single point] |
| COc1ccc2cc(C=NS(=O)(=O)c3ccc(C)cc3)n(C)c2c1 | inactive |
| CS(=O)(=O)N(Cc1ccccc1)c1ccc(C(=O)N2CCN(c3cccc(Cl)c3)CC2)cc1 | active: 11.2 µM |
| Cc1cccc(C(=O)NNC2=CC(=O)CC(C)(C)C2)c1O | inactive |
| CCOc1ccccc1N1CC(C(=O)N(Cc2nnc(-c3ccccc3Cl)o2)C2CC2)CC1=O (configuration not stated) | inconclusive: 32.6 µM [inhibitor, single point] |
| COc1ccc(Cn2c(=O)n(-c3ccccc3C)c(=O)c3c4c(sc32)CN(C(C)=O)CC4)cc1 | inconclusive: 29.1 µM [inhibitor, single point] |
| CCOc1ccc2nc(NC(=O)CSc3nc4c(c(=O)n(C)c(=O)n4C)n3C(C)C)sc2c1 | active: 23.1 µM |
| Cc1ccc(C(=O)Nc2cnc3ccccc3c2)cc1 | inactive |
| CC1(C)Cc2c(C#N)c(N3CCN(C(=O)c4ccccc4Cl)CC3)nc(-c3ccco3)c2CS1 | inconclusive: 29.1 µM [inhibitor, single point] |
| COc1cccc(NC2c3ccccc3C(=O)N2Cc2ccccc2Cl)c1 (configuration not stated) | inconclusive: 20.6 µM [inhibitor, partial curve, poor fit] |
| O=C(CCC(=O)N1CCSc2ccccc21)NCc1ccccc1 | inconclusive: 29.1 µM [inhibitor, single point] |
| CCCCNC(=O)c1ccc2nc(-c3ccco3)c(-c3ccco3)nc2c1 | inconclusive: 18.4 µM [inhibitor, single point] |
| COc1ccc(NC(=O)N2CCc3c(sc4c3CCCC4)C2c2ccccc2OC)cc1 (configuration not stated) | active: 16.4 µM |
| CCOc1ccc(S(=O)(=O)Nc2ccc(C(=O)NCC3CCCO3)cc2)cc1 (configuration not stated) | inconclusive: 29.1 µM [inhibitor, single point] |
| CCOC(=O)c1c(C)sc(-c2c(-c3cc(C)ccc3C)[nH]c3c2c(=O)n(C)c(=O)n3C)c1O | inconclusive: 20.6 µM [inhibitor, single point] |
| Nc1ccc(C(=O)N/N=C/c2cn(Cc3ccc(F)cc3)c3ccccc23)cc1 | inactive |
| O=C(NCc1ccco1)C1CCCN1C(=O)Nc1ccc(Br)cc1 (configuration not stated) | inactive |
| COc1c(C)cccc1C(=O)Nc1ccc(N2CCOCC2)c(Cl)c1 | inconclusive: 23.1 µM [inhibitor, partial curve] |
| OCC1(Cc2ccc(Cl)cc2)CCN(CCCc2ccccc2)CC1 | inconclusive: 29.1 µM [inhibitor, single point] |
| CCCCC(=O)NN(C)c1nc(-c2ccccc2)nnc1C(F)(F)F | inconclusive: 16.4 µM [inhibitor, partial curve] |
| Cc1ccc(NC(=O)CCn2nc(C)c(S(=O)(=O)N3CCCCC3)c2C)cc1Cl | inconclusive: 16.4 µM [inhibitor, single point] |
| O=C(NCc1ccncc1)[C@@H]1CCCN1C(=O)[C@H]1CCCN1C(=O)c1cccs1 | inconclusive: 18.4 µM [inhibitor, partial curve, poor fit] |
| COc1ccccc1N1CCN(C(=O)c2ccccc2Oc2ccccc2)CC1 | inconclusive: 16.4 µM [inhibitor, single point] |

| SMILES | Potency |
| --- | --- |
| Cc1ccc(NS(=O)(=O)c2ccc(C(=O)N3CCN(c4ccccn4)CC3)cc2)cc1 | active: 13 µM |
| Cc1cccc(NC(=O)CSc2ccc(-c3cccnc3)nn2)c1 | inconclusive: 25.9 µM [inhibitor, single point] |
| O=C(NCCCc1ccc(F)cc1)C1CCC(=O)N(CC2CCCCC2)C1 (configuration not stated) | inconclusive: 16.4 µM [inhibitor, single point] |
| C[C@H](/C=C/[C@@]1(O)[C@H](C)C[C@H](O)CC1(C)C)O[C@@H]1O[C@H](CO)[C@@H](O)[C@H](O)[C@H]1O | inactive |
| COc1ccc(-n2nc(C(=O)NCC(=O)NCc3ccco3)c3ccccc3c2=O)c(OC)c1 | inactive |
| O=C1NC(=O)C([N+](=O)[O-])=C(O)C1=O | inactive |
| O=c1[nH]c(=S)[nH]c2n[nH]nc12 | inactive |
| CC(Sc1nc(-c2ccccc2)cc(C(F)(F)F)n1)C(=O)Nc1sc2c(c1C#N)CCC2 (configuration not stated) | inconclusive: 25.9 µM [inhibitor, partial curve] |
| CCN(c1ccc(C)cc1)S(=O)(=O)c1nnc(NC(=O)C2CCCCC2)s1 | inconclusive: 18.4 µM [inhibitor, single point] |
| CC1C(=O)C(C)C(c2cc(Cl)ccc2O)NC1c1cc(Cl)ccc1O (configuration not stated) | inconclusive: 20.6 µM [inhibitor, partial curve] |
| CCCNC(=O)CSc1nc2ccccc2nc1Cc1ccc(Cl)cc1 | inactive |
| O=C(Cn1cc(COc2c(Br)cc(F)cc2Br)nn1)c1ccc(O)cc1 | inconclusive: 29.1 µM [inhibitor, single point] |
| CCC(C)Oc1nc(C)cc(C)c1S(=O)(=O)c1ccccc1C (configuration not stated) | inconclusive: 25.9 µM [inhibitor, single point] |
| Cc1ccc(OCC(=O)NCC(c2ccc(Cl)cc2)N2CCCCC2)cc1 (configuration not stated) | inconclusive: 18.4 µM [inhibitor, single point] |
| COC(=O)c1ccc2nc(-c3ccc(F)cc3)c(Cc3cccc(Cl)c3)n2c1 | inconclusive: 29.1 µM [inhibitor, single point] |
| CCOC(=O)/C(=C\c1ccc([N+](=O)[O-])cc1)C(=O)c1cc(C(C)=O)c(Nc2ccccc2)s1 | active: 0.58 µM |
| Cc1ccc(C)c(CN2C(=O)c3ccccc3S(=O)(=O)c3ccc(C(=O)N4CCc5ccccc54)cc32)c1 | active: 5.8 µM |
| Cn1c(-c2sccc2OCc2ccc(Cl)cc2Cl)n[nH]c1=S | inconclusive: 20.6 µM [inhibitor, single point] |
| CCN(CC)c1ccc(/C=N/n2c(C)nc3ccccc3c2=O)cc1 | inconclusive: 29.1 µM [inhibitor, single point] |
| CN(Cc1ccc(OCC(O)CN(C)Cc2ccccc2)cc1)Cc1nccn1C (configuration not stated) | inconclusive: 16.4 µM [inhibitor, single point] |
| COc1ccc(F)cc1C(=O)C1CCCN(C(=O)c2ccccc2N(C)C)C1 (configuration not stated) | inconclusive: 29.1 µM [inhibitor, single point] |
| Cc1noc(C)c1COc1ccc(C(=O)N(C)CCOc2ccccc2)cc1 | inconclusive: 23.1 µM [inhibitor, single point] |
| COC(=O)c1cc2c(ccn2-c2ccc(F)cc2)n1Cc1ccc(OC(C)=O)cc1 | inconclusive: 16.4 µM [inhibitor, single point] |

| SMILES | Potency |
| --- | --- |
| CC(C)Oc1ccc(CN2CCC2(C)C(=O)Nc2cccc(Oc3ccccc3)c2)cc1 (configuration not stated) | inconclusive: 23.1 µM [inhibitor, single point] |
| Cc1ccc(CCNC(=O)c2cn(C)c3ccc(S(=O)(=O)N(C)C4CCCCC4)cc3c2=O)cc1 | inactive |
| CCC1=Nc2cc(C(=O)NCC(C)c3ccccc3)ccc2Sc2ccc(C)cc21 (configuration not stated) | inconclusive: 16.4 µM [inhibitor, single point] |
| CN1CCN(CCOC2Cc3ccccc3Sc3ccc(Cl)cc32)CC1 (configuration not stated) | inconclusive: 29.1 µM [inhibitor, single point] |
| COc1cccc2sc(N)nc12 | inactive |
| CCN(CC)S(=O)(=O)c1cc(NC(=O)C2CC(=O)N(Cc3ccccc3)C2)ccc1Cl (configuration not stated) | inconclusive: 20.6 µM [inhibitor, single point] |
| CCOC(=O)c1ccc(OCC2c3cc(OC)c(OC)cc3CCN2C(=O)c2ccc(S(=O)(=O)N3CCCC3)cc2)cc1 (configuration not stated) | inconclusive: 29.1 µM [inhibitor, single point] |
| COc1ccc(-n2c(C)c(C(C)=O)c3cc(OC(=O)c4ccc(C)cc4)ccc32)cc1 | inconclusive: 5.8 µM [inhibitor, single point] |
| Cc1cc2[nH]c3c(c[n+](C)c4ccccc34)c2cc1C | inactive |
| O=C(O)CSc1nc2ccccc2[nH]1 | inconclusive: 29.1 µM [inhibitor, single point] |
| CCn1c(CNC(=O)c2ccc(OC)cc2)nnc1SCC(=O)Nc1ccccc1 | inactive |
| COC(=O)c1ccc(NC(=O)CCc2c(C)nc3c(-c4ccccc4)c(C)nn3c2C)cc1 | inconclusive: 29.1 µM [inhibitor, single point] |
| COc1ccc(-c2cc(-c3cccs3)nc(OC)c2C#N)cc1OC | inconclusive: 29.1 µM [inhibitor, single point] |
| Oc1ccc2oc3c(c2c1/C=N/n1cnnc1)CCCC3 | inactive |
| OC1CCC(Nc2ncnc3sccc23)CC1 (configuration not stated) | inactive |
| CN(C)CCCN1c2ccccc2Sc2ccc(C(F)(F)F)cc21 | inconclusive: 35.5 µM [inhibitor, single point] and inconclusive: 21.1 µM [inhibitor, single point] |
| CCc1ccc(N(CC(=O)Nc2ccccc2C(=O)N2CCCC2)S(C)(=O)=O)cc1 | inactive |
| Cc1ccc(Cn2cc(C(=O)c3ccc(F)cc3)c(=O)c3cc4c(cc32)OCO4)cc1 | inconclusive: 23.1 µM [inhibitor, single point] |
| O=C(NCc1ccco1)C1CCCN(S(=O)(=O)c2cc(Cl)ccc2Cl)C1 (configuration not stated) | inconclusive: 18.4 µM [inhibitor, single point] |
| Cc1ccc(/C=C(/NC(=O)c2ccccc2)C(=O)NC(Cc2c[nH]c3ccccc23)C(=O)O)cc1 (configuration not stated) | inactive |
| COC(=O)[C@@]12C[C@@H](CC(=O)NCc3cccs3)C(=O)N(Cc3ccco3)C1=CCC(C)(C)C2 | inconclusive: 29.1 µM [inhibitor, single point] |
